Assay results from patent US20250263469A1 (HOSPITAL FOR SICK CHILDREN, published 2025).

Assays:
[1] = target: SARS-CoV-2 Spike on pseudotyped virus (PsV) (SARS-CoV-2); assay: cell-based or functional assay
[2] = target: SARS-CoV-2 Spike on pseudotyped virus (PsV) (SARS-CoV-2); assay: cell-based or functional assay; remark: listed apart in the source

| Binder | IC50 SARS-CoV2 PsV, MB [1] [µg/mL] | Median IC50, SARS-CoV-2 PsV neutralization [2] [µg/mL] |
| --- | --- | --- |
| MB 128 (other) chain 1: DIQMTQSPSSLSASVGDRVTITCRASQNISRYLNWYQQKPGKAPKLLIYDASNLETGVPSRFSGSGSGTDFTLTISSLQPEDFATYYCQQANGFPPTFGQGTKLEIKRTVAAPSVFIFPPSDEQLKSGTASVVCLLNNFYPREAKVQWKVDNALQSGNSQESVTEQDSKDSTYSLSSTLTLSKADYEKHKVYACEVTHQGLSSPVTKSFNRGECGGGGSGGGGSGGGGSGGGGSGGGGSGGGGSGGGGSGGGGSGGGGSGGGGSGGGGSGGGGSGGGGSGGGGSQVQLVQSGAEVKKPGASVKVSCKASGYTFTHYYMHWVRQAPGQGLEWMGIINPSSSSASYSQKFQGRVTMTRDTSTSTVYMELSSLRSEDTAVYYCARDGRYGSGSYPFDYWGQGTLVTVSSASTKGPSVFPLAPSSKSTSGGTAALGCLVKDYFPEPVTVSWNSGALTSGVHTFPAVLQSSGLYSLSSVVTVPSSSLGTQTYICNVNHKPSNTKVDKKVEPKSCGGGGSGGGGSGGGGSGGGGSGGGG[not shown - about 200 residues] chain 2: [not shown - human IgG1 Fc]GGGGSGGGGSGGGGSGGGGSGGGGSGGGGSGGGGSGGGGSGGGGSGGGGSGGGGSGGGGSGGGGSGGGGS[not shown - human IgG1 Fc]GGGGSGGGGSGGGGSGGGGSGGGGSGGSSQIRQNYSTDVEAAVNSLVNLYLQASYTYLSLGFYFDRDDVALEGVSHFFRELAEEKREGYERLLKMQNQRGGRALFQDIKKPAEDEW chain 3: DIQMTQSPSSLSASVGDRVTITCRASQNISRYLNWYQQKPGKAPKLLIYDASNLETGVPSRFSGSGSGTDFTLTISSLQPEDFATYYCQQANGFPPTFGQGTKLEIKRTVAAPSVFIFPPSDEQLKSGTASVVCLLNNFYPREAKVQWKVDNALQSGNSQESVTEQDSKDSTYSLSSTLTLSKADYEKHKVYACEVTHQGLSSPVTKSFNRGECGGGGSGGGGSGGGGSGGGGSGGGGSGGGGSGGGGSGGGGSGGGGSGGGGSGGGGSGGGGSGGGGSGGGGSQVQLVQSGAEVKKPGASVKVSCKASGYTFTHYYMHWVRQAPGQGLEWMGIINPSSSSASYSQKFQGRVTMTRDTSTSTVYMELSSLRSEDTAVYYCARDGRYGSGSYPFDYWGQGTLVTVSSASTKGPSVFPLAPSSKSTSGGTAALGCLVKDYFPEPVTVSWNSGALTSGVHTFPAVLQSSGLYSLSSVVTVPSSSLGTQTYICNVNHKPSNTKVDKKVEPKSCGGGGSGGGGSGGGGSGGGGSGGGGSGKTPDAMKAAMALEKKLNQALLDLHALGSARTDPHLCDFLETHFLDEEVKLIKKMGDHLTNLHRLGGPEAGLGEYLFERLTLRHD | 3.5 | 3.5 |
| MB 160 (other) chain 1: DIQMTQSPSSLSASVGDRVTITCRASQSVSSWLAWYQQKPGKAPKLLIYAASSLQSGVPSRFSGSGSGTDFTLTISSLQPEDFATYYCQQGYTTPYTFGQGTKLEIKRTVAAPSVFIFPPSDEQLKSGTASVVCLLNNFYPREAKVQWKVDNALQSGNSQESVTEQDSKDSTYSLSSTLTLSKADYEKHKVYACEVTHQGLSSPVTKSFNRGECGGGGSGGGGSGGGGSGGGGSGGGGSGGGGSGGGGSGGGGSGGGGSGGGGSGGGGSGGGGSGGGGSGGGGSQVQLVQSGAEVKKPGASVKVSCKASGYTFTGHDMHWVRQAPGQGLEWMGIINPSGGSTSYAQKFQGRVTMTRDTSTSTVYMELSSLRSEDTAVYYCARANSLRYYYGMDVWGQGTMVTVSSASTKGPSVFPLAPSSKSTSGGTAALGCLVKDYFPEPVTVSWNSGALTSGVHTFPAVLQSSGLYSLSSVVTVPSSSLGTQTYICNVNHKPSNTKVDKKVEPKSCGGGGSGGGGSGGGGSGGGGSGGGG[not shown - about 200 residues] chain 2: [not shown - human IgG1 Fc]GGGGSGGGGSGGGGSGGGGSGGGGSGGGGSGGGGSGGGGSGGGGSGGGGSGGGGSGGGGSGGGGSGGGGS[not shown - human IgG1 Fc]GGGGSGGGGSGGGGSGGGGSGGGGSGGSSQIRQNYSTDVEAAVNSLVNLYLQASYTYLSLGFYFDRDDVALEGVSHFFRELAEEKREGYERLLKMQNQRGGRALFQDIKKPAEDEW chain 3: DIQMTQSPSSLSASVGDRVTITCRASQSVSSWLAWYQQKPGKAPKLLIYAASSLQSGVPSRFSGSGSGTDFTLTISSLQPEDFATYYCQQGYTTPYTFGQGTKLEIKRTVAAPSVFIFPPSDEQLKSGTASVVCLLNNFYPREAKVQWKVDNALQSGNSQESVTEQDSKDSTYSLSSTLTLSKADYEKHKVYACEVTHQGLSSPVTKSFNRGECGGGGSGGGGSGGGGSGGGGSGGGGSGGGGSGGGGSGGGGSGGGGSGGGGSGGGGSGGGGSGGGGSGGGGSQVQLVQSGAEVKKPGASVKVSCKASGYTFTGHDMHWVRQAPGQGLEWMGIINPSGGSTSYAQKFQGRVTMTRDTSTSTVYMELSSLRSEDTAVYYCARANSLRYYYGMDVWGQGTMVTVSSASTKGPSVFPLAPSSKSTSGGTAALGCLVKDYFPEPVTVSWNSGALTSGVHTFPAVLQSSGLYSLSSVVTVPSSSLGTQTYICNVNHKPSNTKVDKKVEPKSCGGGGSGGGGSGGGGSGGGGSGGGGSGKTPDAMKAAMALEKKLNQALLDLHALGSARTDPHLCDFLETHFLDEEVKLIKKMGDHLTNLHRLGGPEAGLGEYLFERLTLRHD | 0.22 | 0.22 |
| MB 192 (other) chain 1: DIVMTQSPLSLPVTPGEPASISCRSSQSLLHSNGYNYLDWYLQKPGQSPQLLIYAASSLQSGVPDRFSGSGSGTDFTLKISRVEAEDVGVYYCMQALQTPYTFGQGTKLEIKRTVAAPSVFIFPPSDEQLKSGTASVVCLLNNFYPREAKVQWKVDNALQSGNSQESVTEQDSKDSTYSLSSTLTLSKADYEKHKVYACEVTHQGLSSPVTKSFNRGECGGGGSGGGGSGGGGSGGGGSGGGGSGGGGSGGGGSGGGGSGGGGSGGGGSGGGGSGGGGSGGGGSGGGGSQVQLVQSGAEVKKPGSSVKVSCKASGGTFSSYAISWVRQAPGQGLEWMGWINPNSGGANYAQKFQGRVTITADESTSTAYMELSSLRSEDTAVYYCSTYYYDSSGYSTDYWGQGTLVTVSSASTKGPSVFPLAPSSKSTSGGTAALGCLVKDYFPEPVTVSWNSGALTSGVHTFPAVLQSSGLYSLSSVVTVPSSSLGTQTYICNVNHKPSNTKVDKKVEPKSCGGGGSGGGGSGGGGSGGGGSGGGG[not shown - about 200 residues] chain 2: [not shown - human IgG1 Fc]GGGGSGGGGSGGGGSGGGGSGGGGSGGGGSGGGGSGGGGSGGGGSGGGGSGGGGSGGGGSGGGGSGGGGS[not shown - human IgG1 Fc]GGGGSGGGGSGGGGSGGGGSGGGGSGGSSQIRQNYSTDVEAAVNSLVNLYLQASYTYLSLGFYFDRDDVALEGVSHFFRELAEEKREGYERLLKMQNQRGGRALFQDIKKPAEDEW chain 3: DIVMTQSPLSLPVTPGEPASISCRSSQSLLHSNGYNYLDWYLQKPGQSPQLLIYAASSLQSGVPDRFSGSGSGTDFTLKISRVEAEDVGVYYCMQALQTPYTFGQGTKLEIKRTVAAPSVFIFPPSDEQLKSGTASVVCLLNNFYPREAKVQWKVDNALQSGNSQESVTEQDSKDSTYSLSSTLTLSKADYEKHKVYACEVTHQGLSSPVTKSFNRGECGGGGSGGGGSGGGGSGGGGSGGGGSGGGGSGGGGSGGGGSGGGGSGGGGSGGGGSGGGGSGGGGSGGGGSQVQLVQSGAEVKKPGSSVKVSCKASGGTFSSYAISWVRQAPGQGLEWMGWINPNSGGANYAQKFQGRVTITADESTSTAYMELSSLRSEDTAVYYCSTYYYDSSGYSTDYWGQGTLVTVSSASTKGPSVFPLAPSSKSTSGGTAALGCLVKDYFPEPVTVSWNSGALTSGVHTFPAVLQSSGLYSLSSVVTVPSSSLGTQTYICNVNHKPSNTKVDKKVEPKSCGGGGSGGGGSGGGGSGGGGSGGGGSGKTPDAMKAAMALEKKLNQALLDLHALGSARTDPHLCDFLETHFLDEEVKLIKKMGDHLTNLHRLGGPEAGLGEYLFERLTLRHD | 0.79 | 0.79 |
| MB 158 (other) chain 1: DIQMTQSPSSLSASVGDRVTITCRASQSISRYLNWYQQKPGKAPKLLIYDASNLESGVPSRFSGSGSGTDFTLTISSLQPEDFATYYCQQANSFPLTFGGGTKVDIKRTVAAPSVFIFPPSDEQLKSGTASVVCLLNNFYPREAKVQWKVDNALQSGNSQESVTEQDSKDSTYSLSSTLTLSKADYEKHKVYACEVTHQGLSSPVTKSFNRGECGGGGSGGGGSGGGGSGGGGSGGGGSGGGGSGGGGSGGGGSGGGGSGGGGSGGGGSGGGGSGGGGSGGGGSQVQLVQSGAEVKKPGASVKVSCKASGYTFTGYYMHWVRQAPGQGLEWMGWINPLNGGTNFAPKFQGRVTMTRDTSTSTVYMELSSLRSEDTAVYYCARDPGGSYSNDAFDIWGQGTLVTVSSASTKGPSVFPLAPSSKSTSGGTAALGCLVKDYFPEPVTVSWNSGALTSGVHTFPAVLQSSGLYSLSSVVTVPSSSLGTQTYICNVNHKPSNTKVDKKVEPKSCGGGGSGGGGSGGGGSGGGGSGGGG[not shown - about 200 residues] chain 2: [not shown - human IgG1 Fc]GGGGSGGGGSGGGGSGGGGSGGGGSGGGGSGGGGSGGGGSGGGGSGGGGSGGGGSGGGGSGGGGSGGGGS[not shown - human IgG1 Fc]GGGGSGGGGSGGGGSGGGGSGGGGSGGSSQIRQNYSTDVEAAVNSLVNLYLQASYTYLSLGFYFDRDDVALEGVSHFFRELAEEKREGYERLLKMQNQRGGRALFQDIKKPAEDEW chain 3: DIQMTQSPSSLSASVGDRVTITCRASQSISRYLNWYQQKPGKAPKLLIYDASNLESGVPSRFSGSGSGTDFTLTISSLQPEDFATYYCQQANSFPLTFGGGTKVDIKRTVAAPSVFIFPPSDEQLKSGTASVVCLLNNFYPREAKVQWKVDNALQSGNSQESVTEQDSKDSTYSLSSTLTLSKADYEKHKVYACEVTHQGLSSPVTKSFNRGECGGGGSGGGGSGGGGSGGGGSGGGGSGGGGSGGGGSGGGGSGGGGSGGGGSGGGGSGGGGSGGGGSGGGGSQVQLVQSGAEVKKPGASVKVSCKASGYTFTGYYMHWVRQAPGQGLEWMGWINPLNGGTNFAPKFQGRVTMTRDTSTSTVYMELSSLRSEDTAVYYCARDPGGSYSNDAFDIWGQGTLVTVSSASTKGPSVFPLAPSSKSTSGGTAALGCLVKDYFPEPVTVSWNSGALTSGVHTFPAVLQSSGLYSLSSVVTVPSSSLGTQTYICNVNHKPSNTKVDKKVEPKSCGGGGSGGGGSGGGGSGGGGSGGGGSGKTPDAMKAAMALEKKLNQALLDLHALGSARTDPHLCDFLETHFLDEEVKLIKKMGDHLTNLHRLGGPEAGLGEYLFERLTLRHD | 0.1 | 0.1 |
